# Assay results taken from paper PMC4336329 (PLoS ONE, 2015).
# Hit rate of the full screen: of about 310,000 compounds, about 14,000 (4.5%) showed an effect of 50% or more. The effect is printed as a negative number. This is one part of the list.
# Target: human ether-à-go-go-related gene (hERG) potassium channel (human, UniProt Q12809)
# Assay: primary screen, population patch clamp on CHO cells stably expressing hERG
# 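Note: peak tail current of the secondary pulse compared with the same well before compound.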
# Chain of human ether-à-go-go-related gene (hERG) potassium channel (Q12809 whole entry, looked up): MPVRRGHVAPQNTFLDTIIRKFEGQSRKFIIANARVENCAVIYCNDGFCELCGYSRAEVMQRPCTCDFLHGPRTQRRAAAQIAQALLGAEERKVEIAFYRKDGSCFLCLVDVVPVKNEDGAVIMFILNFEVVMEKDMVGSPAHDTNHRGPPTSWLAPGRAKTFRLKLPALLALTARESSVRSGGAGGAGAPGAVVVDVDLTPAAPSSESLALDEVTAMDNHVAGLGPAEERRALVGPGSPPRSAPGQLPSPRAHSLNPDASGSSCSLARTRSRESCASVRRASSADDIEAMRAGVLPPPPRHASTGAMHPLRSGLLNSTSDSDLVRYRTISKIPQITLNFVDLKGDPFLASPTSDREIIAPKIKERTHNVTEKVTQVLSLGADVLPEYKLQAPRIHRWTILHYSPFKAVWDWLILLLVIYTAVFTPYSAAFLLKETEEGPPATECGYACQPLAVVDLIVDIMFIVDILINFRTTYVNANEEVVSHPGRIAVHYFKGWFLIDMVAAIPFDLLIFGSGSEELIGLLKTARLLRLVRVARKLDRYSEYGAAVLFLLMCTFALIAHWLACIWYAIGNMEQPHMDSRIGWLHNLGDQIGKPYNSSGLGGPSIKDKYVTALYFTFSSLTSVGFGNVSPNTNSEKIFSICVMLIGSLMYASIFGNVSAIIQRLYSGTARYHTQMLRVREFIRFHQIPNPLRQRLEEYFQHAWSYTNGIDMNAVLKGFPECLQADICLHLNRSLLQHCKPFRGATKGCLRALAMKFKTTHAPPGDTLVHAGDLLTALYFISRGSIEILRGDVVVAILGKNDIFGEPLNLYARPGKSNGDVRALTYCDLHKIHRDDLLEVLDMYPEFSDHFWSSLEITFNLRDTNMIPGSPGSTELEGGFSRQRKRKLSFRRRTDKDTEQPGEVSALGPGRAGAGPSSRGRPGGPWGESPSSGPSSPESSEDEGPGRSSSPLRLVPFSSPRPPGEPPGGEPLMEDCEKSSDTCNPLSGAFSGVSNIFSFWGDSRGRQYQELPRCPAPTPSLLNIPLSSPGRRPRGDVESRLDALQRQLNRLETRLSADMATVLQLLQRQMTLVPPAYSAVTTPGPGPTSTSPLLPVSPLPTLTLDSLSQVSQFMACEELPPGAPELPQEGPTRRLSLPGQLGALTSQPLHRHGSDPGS
row,SMILES,"hERG current change (%, negative = inhibition) at 10uM"
1,COc1ccc(OCCC(=O)OCC(=O)Nc2ccc(Br)cc2)cc1,25%
2,CCc1nc(CN2CCN(c3cc(C(F)(F)F)ccn3)CC2)c(C)[nH]1,-45.2%
3,CCOC(=O)C1CCN(CCC(=O)Nc2cc(C)ccc2C)CC1,-10.7%
4,Cc1nc2c(-c3ccc(F)cc3)c(C)nn2c(C)c1CCC(=O)Nc1ccccc1F,-10.7%
5,Cn1ccnc1COc1ccc(/C=N/O)cc1,-6.61%
6,COC(=O)C1=C(c2cccc(C#N)c2)C[C@@H]2CC[C@H]1N2C(=O)N1CCCC1,11%
7,O=C(COC(=O)c1cn(-c2ccccc2)nc1-c1ccc(F)cc1)Nc1ncc(Cl)cc1Cl,-0.58%
8,CCCN(CC(=O)Nc1ccc(Cl)cc1Cl)C(=O)CC(NC(C)=O)c1ccccc1 (centres unmarked),0.715%
9,O=C(NCc1ccccc1)c1ccccc1C(=O)c1ncc[nH]1,11.4%
10,COc1ccc(C(=O)NC(=S)NNC(=O)c2ccc(NC(C)=O)cc2)cc1Br,-5.12%
11,COCCCn1c(SCC(=O)OC2CCCCC2)nnc1-c1ccco1,-56%
12,O=C(C1=C(O)C(=O)N(CCOCCO)C1c1ccccn1)c1cccs1 (centres unmarked),14%
13,Cc1ccc(N2NC3(CCN(C(N)=O)CC3)NC2=O)cc1,19.3%
14,COC(=O)c1ccc(N2CCN(C)CC2)c(NC(=O)COc2ccc(OC)cc2)c1,-53.5%
15,CCOc1ccccc1C(C(=O)NCCOC)N(CCOC)C(=O)Cn1nnc2ccccc21 (centres unmarked),18.5%
16,Cn1c(NCc2cccs2)nc2ccccc21,-11.1%
17,COc1ccc(CS(=O)(=O)CC(C)(O)c2ccc(Cl)cc2)cc1 (centres unmarked),-0.035%
18,COc1ccc(C(=O)/C=C/c2cc(C(=O)O)cc3c2OCOC3)c(O)c1,-0.565%
19,O=C(N/N=C/c1ccc(-n2ccnc2)cc1)c1cccs1,-34.5%

row,SMILES,"hERG current change (%, negative = inhibition) at 10uM"
1,O=C(Nc1ccccc1Cl)N1CCN(c2ccccn2)CC1,-15.3%
2,OCCNC(=S)Nc1ccc(Cl)c(Cl)c1,-0.451%
3,COc1ccc(OC)c(S(=O)(=O)Nc2cnc3ccccc3c2)c1,0.0276%
4,COc1cccc(CNS(=O)(=O)c2cccc(S(=O)(=O)N3CCOCC3)c2)c1,5.15%
5,CC(C)NC(=O)CSc1nc2ccccc2n1-c1ccccc1,-7.15%
6,CCn1cc(C(C)(C)C)c(C#N)c1NC(C)=O,-0.576%
7,CCN1C(=O)c2ccc(C(=O)NCc3ccc4c(c3)OCO4)cc2C1=O,-1.11%
8,O=C(C1=C[C@H](c2ccccc2)C[C@H](OCc2ccc(CO)cc2)O1)N1CCN(Cc2ccc3c(c2)OCO3)CC1,-39.5%
9,COc1ccc(Cc2c(C)nc(N)nc2Cl)cc1,12.4%
10,CN(C)S(=O)(=O)c1ccc(N2CCN(S(=O)(=O)c3ccc(F)cc3)CC2)c(Cl)c1,7.68%
11,CC(C)Nc1nc(Oc2ccc(Cl)cc2Cl)cc(C(F)(F)F)n1,8.11%
12,O=c1oc2ccccc2cc1-c1cn2ccccc2n1,11.9%
13,Nc1c(C(=O)O)nnn1Cc1ccccc1,8.99%
14,CCCc1nc2c(o1)CC(CC(C)SCC)CC2=O (centres unmarked),-27%
15,COC(=O)/C=C/C(=O)Nc1cccnc1,14.2%
16,Cc1ccnc(NCn2nnc3ccccc32)c1,7.69%
17,O=C(COC(=O)c1ccc(O)cc1)NCC1CCCO1 (centres unmarked),16.9%
18,COc1ccc(C(=O)N2CCN(S(=O)(=O)c3cc(Cl)ccc3OC)CC2)cc1,-27.1%
19,O=C(CNS(=O)(=O)c1ccc(Br)s1)N1CCN(C(=O)c2ccco2)CC1,-42.9%

row,SMILES,"hERG current change (%, negative = inhibition) at 10uM"
1,Cc1cccc(Cl)c1NC(=S)NN,11.2%
2,Cc1cccc(S(=O)(=O)c2c(N)n(/N=C/c3ccco3)c3nc4ccccc4nc23)c1,5.25%
3,CC(=O)O[C@]1(C(C)=O)CC[C@H]2[C@@H]3C=CC4=CC(=O)C=C[C@]4(C)[C@H]3CC[C@@]21C,15.1%
4,CCCN(CC(=O)Nc1cc(C)on1)CC(=O)Nc1ccccc1C,4.99%
5,CC(C)n1cc([C@@H]2C[C@H]3CN(Cc4cccc(Cl)c4)C(=O)[C@]34CCCN24)cn1,-33.7%
6,Cc1nc2cc(-c3ccccc3)nn2c(N)c1-c1ccccc1,3.43%
7,Cc1cc(C)c(NC(=O)Cc2ccc(-n3cccc3)cc2)c(C)c1,14.2%
8,Cc1cccc(-n2c(SCC(=O)NCc3ccc4c(c3)OCO4)nc3ccccc3c2=O)c1,10.8%
9,CC(C)CCNC(=O)C(C)N(C(=O)Cn1nnc(-c2ccc(F)cc2)n1)C1CCCC1 (centres unmarked),-20.1%
10,CC(C)NS(=O)(=O)c1cccc2nsnc12,2.23%
11,COc1ccc(N2C(=O)/C(=C/c3ccc(N(C)C)o3)C(=O)NC2=S)cc1,3.28%
12,Cc1ccc(C)c(OCCC(=O)OC(C)C(=O)Nc2c(C)n(C)n(-c3ccccc3)c2=O)c1 (centres unmarked),-21.4%
13,O=C(CNC(=O)c1ccc(Br)o1)NCc1ccc2c(c1)OCO2,6.72%
14,O=C(N/N=C/c1cccc([N+](=O)[O-])c1)c1cccc(Br)c1,17.1%
15,COc1cc(Cn2c(=O)c3c(OC)c(C)cnc3n(C)c2=O)cc(OC)c1,14.1%
16,CCc1nnc(NS(=O)(=O)c2ccc(N=Cc3c(C)[nH]n(-c4ccc(C)c(C)c4)c3=O)cc2)s1,15.9%
17,CCOc1ccc2nc(NC(=O)CN3CCN(CC)CC3)sc2c1,-36.7%
18,CCOC(=O)c1sc(=NC(=O)c2ccco2)n(C)c1C,20.3%
